For assay [1], the target named is L1CAM endogenously expressed on MCF-7 and MDA-MB-231 cells (UniProt P32004). The experiment in a line: flow cytometry, MCF-7 cells. Background: In flow cytometry, cells or beads pass a laser one at a time.
Assay [2] has the same target. The experiment in a line: flow cytometry, MDA-MB-231 cells.

B1: 15G02 (antibody, V domains shown)
VH: EVQLVESGGGLVQPGGSLRLSCGVSGFTFSHYWMNWVRQAPGKGLEWVANIMQDGSEKYYVDSVKGRFTISRDNAKNSLYLQMNSLRVEDTAVYYCARDRGVTTLFDYWGQGILVTVSS
VL: [sequence of about 100 residues not given]TFGQGTKVEIK
For B1, the EC50 in assay [1] was found to be 1 nM; in assay [2], 0.98 nM.

In general, EC50 refers to the concentration needed to bring the measured effect to its halfway point. The low end stands for higher potency in that assay, the high end for lower potency in that assay.

These data come from patent US20260131000A1.
